Reference: a compilation of properties of binary mixtures (doi:10.1016/j.molliq.2017.11.153)
Some of these densities may be calculated back from excess volumes.

Test: xn = mol fraction of the nth substance listed
Details: 101 kPa

CCCC[n+]1ccccc1.N#C[N-]C#N + CC1COC(=O)O1
mass density [kg/m3]
Details | x1 = 0.1003 | x1 = 0.197 | x1 = 0.3005 | x1 = 0.4003 | x1 = 0.4997 | x1 = 0.6002 | x1 = 0.7011 | x1 = 0.7885 | x1 = 0.9008 | x1 = 1
288.15 K | – | 1166 | 1148 | 1133 | 1120 | 1109 | 1099 | 1091 | 1082 | 1075
293.15 K | 1181 | 1162 | 1144 | 1129 | – | 1105 | 1095 | 1087 | 1079 | 1072
298.15 K | 1177 | 1157 | – | 1126 | 1113 | 1102 | – | – | 1076 | 1069
303.15 K | 1172 | 1153 | – | 1122 | 1110 | – | 1089 | 1081 | 1072 | 1066
308.15 K | – | 1149 | – | 1118 | 1106 | 1095 | – | 1078 | 1069 | 1062
313.15 K | – | 1144 | – | 1114 | 1102 | 1092 | 1082 | 1074 | 1066 | 1060
318.15 K | – | 1140 | 1124 | 1110 | 1099 | 1088 | – | 1071 | 1063 | 1057
323.15 K | 1153 | – | – | 1106 | 1095 | 1085 | – | – | 1060 | 1054
328.15 K | 1148 | 1131 | 1116 | 1103 | 1092 | – | 1072 | 1065 | 1057 | –
333.15 K | 1144 | – | – | 1099 | 1088 | 1078 | – | 1061 | 1054 | –
338.15 K | 1139 | – | 1108 | 1095 | 1085 | 1075 | 1066 | 1059 | 1051 | 1045
343.15 K | 1134 | 1119 | 1104 | 1091 | 1081 | 1071 | – | 1055 | – | 1042
348.15 K | 1130 | 1114 | – | 1088 | 1077 | 1068 | – | 1053 | 1045 | 1039
353.15 K | 1125 | 1110 | 1096 | – | 1074 | 1065 | 1056 | 1049 | 1042 | 1036

CC1COC(=O)O1 (configuration not stated) + CCCC[n+]1ccccc1.N#C[N-]C#N
x2 = 0
Details | mass density [kg/m3]
288.15 K | 1210
293.15 K | 1204
298.15 K | 1199
303.15 K | 1194
308.15 K | 1189
313.15 K | 1183
323.15 K | 1173
328.15 K | 1167
338.15 K | 1157
343.15 K | 1151
348.15 K | 1146
353.15 K | 1141
